The source gives no read counts; variants with many changes may rest on few reads.
B1: CPEB3 Ribozyme (parent)
chain: UAACAGGGGGCCACAGCAGAAGCGUUCACGUCGCAGCCCCUGUCAGAUUCUGGUGAAUCUGCGAAUUCUGCUGUAUAUCUC

Variants of: B1
Assay: self-cleavage, relative activity (ratio to wild type); higher = more cleavage; in vitro, sequencing
Outline: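 Relative activity was defined as the cleaved/total read fraction for a variant divided by the same fraction for the unmutated ribozyme. CPEB3 self-cleaving ribozyme libraries were made by rounds of error-prone PCR, barcoded, and transcribed in vitro with T7 RNA polymerase for 5 hours at 37°C, and cleavage ran through transcription plus a 15 min DNase I step before EDTA. Illumina sequencing of template-switched reverse transcripts gave the reads, and DNA sequencing mapped the barcodes. Averages come from three batches, using variants with at least 5 reads.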

Variant | self-cleavage
U25C G30A U31C U66C G73A A77G | 0.06
U25C G30A U41C A45U | 0.31
U25C G30A U41C U54C U78C | 0.22
U25C G30A U58A | 0.21
U25C G30A U66C | 0.11
U25C G30A U66C U80A | 0.07
U25C G30A U69C | 0.11
U25C G30A U74G A75G | 0.19
U25C G30C A47G | 0.14
U25C G30C A56G U60C A64U U74C U80C | 0.05
U25C G30C U54C U67A | 0.17
U25C G30U A57G | 0.13
U25C G30U A57U | 0.06
U25C G30U U43A A56G U72A | 0.05
U25C G30U U66C U72C | 0.17
U25C G33A A35G U49A U51A | 0.15
U25C G33A A57U U72A | 0.08
U25C G33A C34A U41A U54A G70A U76C | 0.16
U25C G33A U49C U67C U76A A77G | 0.08
U25C G33C C79U | 0.19
U25C G33C G46C U48C A75U | 0.07
U25C G33U U41A C44U U69C | 0.16
U25C G33U U43G A56U U76C | 0.14
U25C G36A A47G A56U A57G | 0.1

Variant | self-cleavage
U25C G36A U49C | 0.06
U25C G36A U49C U69A | 0.07
U25C G36A U54C | 0.14
U25C G36A U54C C62U | 0.13
U25C G36A U58A | 0.16
U25C G36C A45G U51C U58C U60C | 0.08
U25C G36C C39U A45G U58C | 0.14
U25C G36U A75U U80C | 0.13
U25C G42A U54C U60C U72C U74C | 0.04
U25C G42C A56G U60A | 0.13
U25C G42U U67C | 0.09
U25C G46A U48C A64G U69C | 0.13
U25C G46U U54C U74A | 0.1
U25C G52A A56G | 0.21
U25C G52A C59U U69C | 0.19
U25C G52A U69C | 0.11
U25C G52C A57G U67A U78C | 0.08
U25C G52C U54C A56U | 0.16
U25C G52C U69A | 0.21
U25C G52U U74C U80C | 0.13
U25C G53A A65G U74C U78C U80C | 0.53
U25C G53A C62U A64G A77G | 0.11
U25C G55A G63A | 0.23
U25C G61C U78C | 0.05

Variant | self-cleavage
U25C G61U A64U | 0.14
U25C G63A C71U | 0.09
U25C G70C U78C | 0.06
U25C U26A A28U U43C A47G A57G U60C | 0.14
U25C U26A A28U U51C | 0.22
U25C U26A A45U U48C G73U | 0.05
U25C U26A A47G | 0.22
U25C U26A A47G U54C C62U A64U A75G | 0.04
U25C U26A C37A | 0.21
U25C U26A C39A U66C | 0.15
U25C U26A C62U | 0.1
U25C U26A G33A C34A A47G U54A C62U | 0.26
U25C U26A U31C C40U | 0.19
U25C U26A U31C U67A U72G | 0.14
U25C U26A U41A G52A U66C U76C U78C | 0.06
U25C U26A U41C | 0.19
U25C U26A U43A | 0.27
U25C U26A U43C U49A G61C U69C | 0.14
U25C U26A U43C U69C U72A | 0.15
U25C U26A U69C | 0.2
U25C U26A U69C G70A U72C | 0.14
U25C U26A U72G | 0.22
U25C U26A U78G | 0.19
U25C U26A U80A | 0.77

Variant | self-cleavage
U25C U26C A35G A57G A65G A77C | 0.15
U25C U26C A35G G52A A65G U78C | 0.07
U25C U26C A35G U74A | 0.32
U25C U26C A35U C38A U66C | 0.2
U25C U26C A45G U48A U69C U76A | 0.03
U25C U26C A45G U54C | 0.09
U25C U26C A45U U49C | 0.18
U25C U26C A47G A75U | 0.12
U25C U26C A47G U54A | 0.3
U25C U26C A47G U72G U74A A75G | 0.04
U25C U26C A47U U49C A57G | 0.21
U25C U26C A47U U58A U69A | 0.18
U25C U26C A47U U74A | 0.23
U25C U26C A56G A57G | 0.22
U25C U26C A56G A57G U80C | 0.09
U25C U26C A56U C62U A77G | 0.05
U25C U26C A57G | 0.07
U25C U26C A65G C79U | 0.09
U25C U26C A75G | 0.19
U25C U26C C29U A45G | 0.26
U25C U26C C37A U41C | 0.24
U25C U26C C37U A45G U54C | 0.15
U25C U26C C40G | 0.29
U25C U26C C40G A56U | 0.08

Variant | self-cleavage
U25C U26C C40U U49C | 0.12
U25C U26C C40U U72C | 0.16
U25C U26C C44A A64G | 0.24
U25C U26C G33C G46C U48C A75U | 0.15
U25C U26C G36A U43C A47G | 0.11
U25C U26C G53C A64G | 0.08
U25C U26C U31A U43C A45G A75U | 0.14
U25C U26C U41A U51A U66C | 0.15
U25C U26C U41A U58C U60C U67C | 0.34
U25C U26C U41A U60C | 0.1
U25C U26C U41C | 0.38
U25C U26C U41C U60A | 0.09
U25C U26C U43C A64G U67C | 0.11
U25C U26C U43G C62A U69A A75U U76C | 0.07
U25C U26C U49C G55A | 0.22
U25C U26C U51C | 0.26
U25C U26C U51C U54C A57U | 0.17
U25C U26C U58C A64U U69C U78C | 0.32
U25C U26C U60A A64U U69C | 0.11
U25C U26C U60C | 0.19
U25C U26C U67C | 0.1
U25C U26G C37A A64G A65G U76C | 0.01
U25C U26G G73A | 0.35
U25C U31A A35C U43G A65G U72C | 0.06

Variant | self-cleavage
U25C U31A A35G A47G A75G U76C | 0.07
U25C U31A A35U U60C | 0.07
U25C U31A A56G U72A | 0.08
U25C U31A A57G U72C | 0.17
U25C U31A C38U U48C U58A | 0.17
U25C U31A C79A | 0.27
U25C U31A G46A U69A U72A | 0.1
U25C U31A G70U | 0.06
U25C U31A U41C G63A U74G | 0.08
U25C U31A U43A A47U | 0.15
U25C U31A U48C U72C | 0.27
U25C U31A U51C | 0.23
U25C U31A U54C A64U | 0
U25C U31A U58A U60A U78C | 0.1
U25C U31A U60A | 0.07
U25C U31A U60A A77U | 0.16
U25C U31A U74A | 0.09
U25C U31A U78G | 0.13
U25C U31C A35G | 0.15
U25C U31C A35G U54C | 0.15
U25C U31C A35U A56U U78C | 0.07
U25C U31C A45G U54C | 0.12
U25C U31C A45U U49C U67C U69A U72A | 0.04
U25C U31C A47G | 0.26

Variant | self-cleavage
U25C U31C A47G A75U | 0.23
U25C U31C A47G U51G A75U | 0.27
U25C U31C A47G U69C | 0.12
U25C U31C A56G | 0.22
U25C U31C A57U | 0.07
U25C U31C A64G | 0.26
U25C U31C C37G U60A | 0.13
U25C U31C C39U U78C | 0.13
U25C U31C G46U U66C | 0.13
U25C U31C G53C U66A | 0.22
U25C U31C U41A U43C | 0.15
U25C U31C U43A U69A | 0.21
U25C U31C U43C C44U U49C G61A | 0.05
U25C U31C U48A | 0.11
U25C U31C U48C A57G | 0.12
U25C U31C U49A A64G U72C | 0.17
U25C U31C U49A U58C U67C | 0.07
U25C U31C U49C U60G A65G | 0.27
U25C U31C U51C | 0.27
U25C U31C U51C A77U C79A | 0.09
U25C U31C U51C U66A U72A | 0.05
U25C U31C U54C | 0.29
U25C U31C U54C A64G U67C U80C | 0.08

— the RNAGym collection of RNA variant scans (doi:10.1093/nar/gkz1192)
